From publication PMC7819943, “Rice protein-binding microarrays: a tool to detect cis-acting elements near promoter regions in rice”
The list shows a part of the results.

Each sequence was assayed against T1, OsWOX13 (Oryza sativa, UniProt Q5QMM3 1-267) (assay: protein-binding microarray (RPBM); PBS, 2% BSA, 51.3 ng/ul salmon testes DNA, 50 uM zinc acetate, 200 nM TF, 25 C, 1 h; high values mean tight binding). Settings: protein: recombinant; tags: N-terminal polyhistidine and DsRed monomer fusion (pET32a); label: CyDye5-dUTP incorporated in the synthesized complementary strand; 3' TTTTT single-stranded linker to array surface; dsDNA, one strand shown.
T1 sequence: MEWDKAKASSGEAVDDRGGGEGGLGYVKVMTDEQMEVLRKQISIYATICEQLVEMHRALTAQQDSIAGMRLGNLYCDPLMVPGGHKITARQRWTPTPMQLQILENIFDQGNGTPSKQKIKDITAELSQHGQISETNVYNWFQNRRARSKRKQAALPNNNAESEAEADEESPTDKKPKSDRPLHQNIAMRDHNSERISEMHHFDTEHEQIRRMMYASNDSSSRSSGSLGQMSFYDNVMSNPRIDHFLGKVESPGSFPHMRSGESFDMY
In short: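 A custom Agilent array was converted to double-stranded form by primer extension with Cy5-dUTP and blocked with 2% BSA. Protein at 200 nM in PBS with 2% BSA, salmon testes DNA and 50 µM zinc acetate was applied for 1 h at 25 °C, followed by washing. The proteins were polyhistidine–DsRed N-terminal fusions of transcription factors, expressed in E. coli BL21-CodonPlus and Ni–NTA-purified. The binding signal is per-feature fluorescence intensity (arbitrary units) from an Axon 4000B scanner.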
For “ATTTTATAGGAATTAAATAAATTAATTTCTAGAGTCTGTACGGAGTCACCTAGTGCAG”, the binding signal was 11400 fluorescence intensity (a.u.). “GCAAATACTTAATTAATAATGTGTTAATGGGTAACACCGTCGGAGTCACCTAGTGCAG” was tested, and the binding signal was 22300 fluorescence intensity (a.u.). “ACATCAATAAAATTAAATTAGTTTCATTAAATATAACATTCGGAGTCACCTAGTGCAG” was tested, and the binding signal was 5700 fluorescence intensity (a.u.). With “CGAATTTAATGGTGCAATCAGATCATGATTTGGATAAGTACGGAGTCACCTAGTGCAG” the binding signal was 18500 fluorescence intensity (a.u.). With “GGTTGGGAGTTGGGGAGGAGGGGAGTTAGGCAAAGAGGAGCGGAGTCACCTAGTGCAG” the binding signal was 3160 fluorescence intensity (a.u.). In the case of “ATCAAGAACATAATTAGCATGGTAATATATGCAAGAACAACGGAGTCACCTAGTGCAG”, the binding signal is reported as 3960 fluorescence intensity (a.u.). In the case of “CTGATTAAGAATAGGGTTGATGTCAATGTTGCTGATAATGCGGAGTCACCTAGTGCAG”, the binding signal is reported as 7360 fluorescence intensity (a.u.). For “ACATAAGTCAAACAGATTGTCAATCAGATCGAGCAGTTGTCGGAGTCACCTAGTGCAG”, the binding signal was 41400 fluorescence intensity (a.u.). With “GGTAAATCGTTAATTGCTATGTCACAAGAGTGGCAAATAGCGGAGTCACCTAGTGCAG” the binding signal was 12800 fluorescence intensity (a.u.). For “TATAGTTGATTTATTTAGGAGAGTTAGTTGATTTGTGTTCCGGAGTCACCTAGTGCAG”, the binding signal was 24100 fluorescence intensity (a.u.). With “GAAATTAACAGCGGCTTAATCAGAAGAAACGAACCAATCACGGAGTCACCTAGTGCAG” the binding signal was 11500 fluorescence intensity (a.u.). For “TGGGCCTTGCATGAGTTTGATTGACCCTATGGTCTGCGCACGGAGTCACCTAGTGCAG”, the binding signal was 4520 fluorescence intensity (a.u.). “GGCATGCTGATTGAGTTTATGTTCAGGTAAGCTATGAGAACGGAGTCACCTAGTGCAG” was tested, and the binding signal was 31600 fluorescence intensity (a.u.). For “AGTGATTAGATTAGTGAACTGATTAACATTTCTTGTGTTCCGGAGTCACCTAGTGCAG”, the binding signal was 64700 fluorescence intensity (a.u.). With “ATATAATGGCCAGTCTAAATTTTACAAAATACAAGTGGCACGGAGTCACCTAGTGCAG” the binding signal was 13400 fluorescence intensity (a.u.). “TCCTAATCAATCGCCGCCTTTTCTCTCTTCTCGCCTCTCCCGGAGTCACCTAGTGCAG” was tested, and the binding signal was 11400 fluorescence intensity (a.u.). With “GATAAATGACGACGCTAAATGTGTAGTTTTGTGATAAACGCGGAGTCACCTAGTGCAG” the binding signal was 9810 fluorescence intensity (a.u.). “GCTGATGGTTTGTGTCGGGAGGGGAGGATTGAGGATGCTTCGGAGTCACCTAGTGCAG” was tested, and the binding signal was 9110 fluorescence intensity (a.u.). With “TACTTATGTAAAAGGATTGATTTAAGAGAATGGTCCAAACCGGAGTCACCTAGTGCAG” the binding signal was 3890 fluorescence intensity (a.u.). For “AGAGATTTGTTTGGTGAATGGTGATTTCTTCCTGTGATGACGGAGTCACCTAGTGCAG”, the binding signal was 6100 fluorescence intensity (a.u.). In the case of “AAATCAATCTGATGGGCCGAATTGGAGGCCCATATCCGTGCGGAGTCACCTAGTGCAG”, the binding signal is reported as 8660 fluorescence intensity (a.u.). With “TTTTCATAAACAAGTGATTGGTGTCACTGACAACAACCCTCGGAGTCACCTAGTGCAG” the binding signal was 12900 fluorescence intensity (a.u.). “TGTATTTGAATTTGATTGTTCTTGAGATTACTGAGTTGGACGGAGTCACCTAGTGCAG” was tested, and the binding signal was 6610 fluorescence intensity (a.u.). In the case of “ATAAAATTTATAATCATTTGACTTTTCTTTAAATCCAGAACGGAGTCACCTAGTGCAG”, the binding signal is reported as 17700 fluorescence intensity (a.u.). “TAAAACTTATTTCTTGATAGATCAATCCCAGATTACAATGCGGAGTCACCTAGTGCAG” was tested, and the binding signal was 8210 fluorescence intensity (a.u.). In the case of “ATTAGATAGTACTAATACCTGATTAGACGCCGTCCCATTGCGGAGTCACCTAGTGCAG”, the binding signal is reported as 4870 fluorescence intensity (a.u.). In the case of “TTGGTTTTGCCAATTAGATGGCTAATCGATCGATCAATCGCGGAGTCACCTAGTGCAG”, the binding signal is reported as 6280 fluorescence intensity (a.u.). “AATCGAATTCAATCATGAAGAACGAGATAGCAACATTTAGCGGAGTCACCTAGTGCAG” was tested, and the binding signal was 12300 fluorescence intensity (a.u.). With “TTAATTACAAATTGATTTGATCACGTAGATAATTACATCACGGAGTCACCTAGTGCAG” the binding signal was 62000 fluorescence intensity (a.u.). “TTGCGTAACTCCCCTAATTATAATGGCGCCTAAACCAAACCGGAGTCACCTAGTGCAG” was tested, and the binding signal was 7110 fluorescence intensity (a.u.). In the case of “TCAACTGATGAGAGTAAACATCCATATGCTCTCAGAGGCACGGAGTCACCTAGTGCAG”, the binding signal is reported as 3140 fluorescence intensity (a.u.). For “GTGATAATTTTATTACTAAATTTATAGTTTGGTGATCTTCCGGAGTCACCTAGTGCAG”, the binding signal was 28200 fluorescence intensity (a.u.). “AAAATGGGGTGGGATTAGAATTGGTAAATGAATCAGGGTTCGGAGTCACCTAGTGCAG” was tested, and the binding signal was 3800 fluorescence intensity (a.u.). In the case of “GGCATTGACTGCAAATATGCAATCATGGGATTGACCACTACGGAGTCACCTAGTGCAG”, the binding signal is reported as 21900 fluorescence intensity (a.u.). With “CATTAATTGACCGTAAATTTAGAATAAGGCCAGCATTAGTCGGAGTCACCTAGTGCAG” the binding signal was 38700 fluorescence intensity (a.u.). “TTGTAAAATAAATTTATAGCCGTTTAGGTAATATGCAAGCCGGAGTCACCTAGTGCAG” was tested, and the binding signal was 7940 fluorescence intensity (a.u.). “AATGGATTGGATACCTAAACATCATTTCATAAGAAAATGCCGGAGTCACCTAGTGCAG” was tested, and the binding signal was 6190 fluorescence intensity (a.u.). “TCAAAATTTGACTTCATGTATAGATTTCTTATCAATCTGTCGGAGTCACCTAGTGCAG” was tested, and the binding signal was 8410 fluorescence intensity (a.u.). With “AGTCCTTTAATTAATTTATTATTATTATACCAGGACTTGTCGGAGTCACCTAGTGCAG” the binding signal was 24600 fluorescence intensity (a.u.). For “TTTGATTTGAAGAGAATTAAACAAAATTAAGGGAGAGTAACGGAGTCACCTAGTGCAG”, the binding signal was 28200 fluorescence intensity (a.u.). For “ATATATTAACTGCATGCAATTAGAGTTTAATCTTGGGCATCGGAGTCACCTAGTGCAG”, the binding signal was 13300 fluorescence intensity (a.u.). “ATTTATGTAATTAGTTTTATAAGTAGTCTATATTTAATACCGGAGTCACCTAGTGCAG” was tested, and the binding signal was 4210 fluorescence intensity (a.u.).
